Test results as given in article PMC4336329 (PLoS ONE, 2015).
The campaign covered roughly 310,000 compounds. About 14,000 (4.5%) showed an effect of 50% or more. The effect is printed as a negative number. The list shows a part of the results.

target: human ether-à-go-go-related gene (hERG) potassium channel (human, UniProt Q12809); experiment: primary screen, population patch clamp on CHO cells stably expressing hERG
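Further: peak tail current of the secondary pulse compared with the same well before compound.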

Chain of human ether-à-go-go-related gene (hERG) potassium channel (Q12809 whole entry, looked up): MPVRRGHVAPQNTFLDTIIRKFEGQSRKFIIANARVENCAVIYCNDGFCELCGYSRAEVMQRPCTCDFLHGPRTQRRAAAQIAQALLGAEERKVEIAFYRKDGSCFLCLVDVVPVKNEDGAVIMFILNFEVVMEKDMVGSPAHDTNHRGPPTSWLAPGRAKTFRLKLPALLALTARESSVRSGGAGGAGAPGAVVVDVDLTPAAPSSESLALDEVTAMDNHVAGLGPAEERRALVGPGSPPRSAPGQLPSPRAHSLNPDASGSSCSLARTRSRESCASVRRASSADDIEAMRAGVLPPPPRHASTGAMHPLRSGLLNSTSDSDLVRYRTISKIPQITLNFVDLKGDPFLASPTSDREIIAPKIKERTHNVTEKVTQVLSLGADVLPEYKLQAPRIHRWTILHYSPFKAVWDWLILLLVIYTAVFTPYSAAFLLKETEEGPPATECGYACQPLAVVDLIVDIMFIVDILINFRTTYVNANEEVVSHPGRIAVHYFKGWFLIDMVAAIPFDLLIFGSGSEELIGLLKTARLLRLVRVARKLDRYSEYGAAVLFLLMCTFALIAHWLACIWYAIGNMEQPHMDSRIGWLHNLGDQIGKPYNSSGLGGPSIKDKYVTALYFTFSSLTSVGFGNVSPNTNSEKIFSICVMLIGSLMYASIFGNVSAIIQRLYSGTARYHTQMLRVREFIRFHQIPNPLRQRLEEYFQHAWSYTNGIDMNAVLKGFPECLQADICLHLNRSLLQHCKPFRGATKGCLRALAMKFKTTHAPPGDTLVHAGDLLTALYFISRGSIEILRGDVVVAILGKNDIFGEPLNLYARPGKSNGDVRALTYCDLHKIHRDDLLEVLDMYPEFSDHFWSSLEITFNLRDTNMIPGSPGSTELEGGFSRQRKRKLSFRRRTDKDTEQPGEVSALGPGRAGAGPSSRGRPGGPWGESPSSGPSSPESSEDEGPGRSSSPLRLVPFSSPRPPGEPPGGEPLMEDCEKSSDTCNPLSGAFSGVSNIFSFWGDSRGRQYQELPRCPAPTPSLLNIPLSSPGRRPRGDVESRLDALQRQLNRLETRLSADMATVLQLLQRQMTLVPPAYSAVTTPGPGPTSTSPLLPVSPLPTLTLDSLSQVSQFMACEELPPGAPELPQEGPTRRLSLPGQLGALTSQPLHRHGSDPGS

| SMILES | hERG current change (%, negative = inhibition) at 10uM [%] |
| --- | --- |
| CCN1CC2C3CCC(C)(O3)C2C1 (stereo not drawn) | -73.1 |
| Cn1c(=O)[nH]c2ccc([N+](=O)[O-])nc21 | 9.62 |
| COc1ccc(N/C=C/C(=O)c2ccc(OC)c(OC)c2)cc1 | 17.5 |
| CCCC(=Nc1ccccc1OC)C1=C(O)CC(c2ccccc2)CC1=O (stereo not drawn) | 0.706 |
| CN(C(=O)CSc1ncnc2scc(-c3ccccc3)c12)C1CCS(=O)(=O)C1 (stereo not drawn) | -7.59 |
| O=C(NCc1ccncc1)Nc1ccccc1F | 14.6 |
| Cc1ccc(C(=O)Nc2ccc3[nH]c(=O)[nH]c3c2)c(C)c1 | 45.6 |
| C=CCN(CC(=O)NCc1ccc(F)cc1)C(=O)c1csnn1 | -18.2 |
| Clc1ccc(CNc2ncccn2)cc1 | 13.5 |
| CCOC(=O)Cn1cc(C=O)c2ccccc21 | -2.22 |
| CCOC(=O)c1ccc(NC(=O)Oc2ccccc2)cc1 | -7.53 |
| CCc1cccc(NC(=O)CSCc2nc3sc(C)c(C)c3c(=O)[nH]2)c1 | 23.1 |
| Cc1cnc(NC(=O)c2cc3ccccc3o2)s1 | 19.9 |
| CC(Nc1n[nH]c(=O)[nH]c1=O)C(=O)N/N=C/c1cccs1 (stereo not drawn) | 20.4 |
| O=C(CCN1C(=O)c2ccccc2C1=O)C1=NN[C@@H]2C(=O)N(c3cccc(F)c3)C(=O)[C@H]12 | 22.4 |
| Nc1ccc(C23CC4CC(CC(O)(C4)C2)C3)cc1 | 6.83 |
| CC(c1c(O)c2ccccc2[nH]c1=O)C1(C)CCC(O)C(C)(C)O1 (stereo not drawn) | -2.48 |
| CCC(=O)N1CCc2cc(S(=O)(=O)CCC(=O)NCc3cccs3)ccc21 | -2.37 |
| COc1ccc(Br)cc1CN1CCSCC1 | 14.4 |
| CCn1ccnc1CN(C)Cc1nc(Cc2cccc(C(F)(F)F)c2)no1 | -60.8 |
| O=[N+]([O-])/C=C/c1cn(Cc2ccccc2)c2ccccc12 | 3.66 |
| Cc1ccc(N=CC2=C(O)CC(c3ccco3)CC2=O)cc1 (stereo not drawn) | -7.57 |
| Cc1ccc(-c2nc(SCC(=O)NCCN3C(=O)CSC3=O)[nH]c2-c2ccc(C)cc2)cc1 | -9.15 |

| SMILES | hERG current change (%, negative = inhibition) at 10uM [%] |
| --- | --- |
| O=C(CC1CCCCC1)NC1CCCC1 | -3.75 |
| CC(=O)NC12CC3CC(C1)CC(C(=O)N(C)CC(=O)Nc1ccc(F)c(F)c1F)(C3)C2 | -17.7 |
| Cc1ccc(NC(=O)c2cc(-c3cccc(O)c3)on2)cc1C | 5.27 |
| CC(=O)C1C(c2ccccc2OC(F)F)NC(=O)NC1(O)C(F)(F)F (stereo not drawn) | 10.2 |
| CCN(CC)c1ccc(NC(=O)c2ccc(=O)[nH]c2)cc1S(=O)(=O)Nc1ccc(OC)cc1 | -7.22 |
| O=C(O)c1cc2c([nH]c1=O)CCCC2 | 14.1 |
| CCCCCN(C(=O)CCC(=O)OCc1cc(C(C)=O)ccc1OC)c1c(N)n(CCCC)c(=O)[nH]c1=O | -35.3 |
| CC(C(=O)NCc1ccccc1)N1CCN(c2ccc(F)cc2)CC1 (stereo not drawn) | -18.9 |
| COc1c(Cl)cc(Cl)cc1C(=O)Nc1ccc(NC(C)=O)cc1 | 3.33 |
| Cc1cccc(N2CCN(C(=O)CCn3c(=O)[nH]c4ccsc4c3=O)CC2C)c1 (stereo not drawn) | 21.5 |
| COc1cccc(N2CCN(C3CC(=O)N(c4ccc(Cl)cc4)C3=O)CC2)c1 (stereo not drawn) | -12.3 |
| CCOC(=O)c1ccccc1-n1c(C)cc(C2N=C(N)Nc3nc4ccccc4n32)c1C (stereo not drawn) | 4.23 |
| CNC(=O)Cn1nc(-c2ccc(C)cc2)c2ccccc2c1=O | -3.12 |
| Cc1cc(C)n(CC(O)COc2ccc(F)cc2)n1 (stereo not drawn) | 9.76 |
| O=C1CC2OCC=C3CN4CCC56c7cc([N+](=O)[O-])ccc7N1C5C2C3CC46 (stereo not drawn) | -22.4 |
| C/C(=C\c1ccccc1)C(=O)NCCN1CCOCC1 | 6.31 |
| Cc1ccc(CC(=O)Nc2ccc(S(=O)(=O)Nc3nccc(C)n3)cc2)cc1 | 1.2 |
| CCc1ccc(C2C(C#N)=C(N)N(N3CCOCC3)C3=C2C(=O)CC(C)(C)C3)s1 (stereo not drawn) | -15.8 |
| CCCCN(Cc1ccco1)S(=O)(=O)c1c[nH]c(C(=O)OC)c1 | -4.24 |
| COc1ccc(-c2n[nH]c(=S)n2-c2ccc(Br)cc2)cc1OC | 20.3 |
| COc1ccc(NC2CCCN(C(=O)c3ccc4[nH]c(C)c(C)c4c3)C2)cc1 (stereo not drawn) | 9.05 |
| Cc1ccc(CNC(=O)CSCc2ccccc2F)cc1 | -2.9 |
